The antibiotic and cytotoxicity screens of Wong et al. (2023)
This is one part of the list.

How the values were obtained:
[1] = system: HSkMC (human skeletal muscle cells); assay: cytotoxicity call (relative viability < 0.9); details: 10 µM
[2] = system: HepG2; assay: cytotoxicity call (relative viability < 0.9); details: 10 µM
[3] = system: S. aureus RN4220; assay: growth inhibition call (relative growth <= 0.2); details: 50 µM

Row | Compound | cytotoxicity call [1] | cytotoxicity call [2] | growth inhibition call [3]
1 | Cc1noc(C)c1NC(=O)Nc1cccc2c1O[C@@H](CN(C)Cc1ccc(C(F)(F)F)cc1)[C@H](C)CN([C@H](C)CO)C2=O | inactive | inactive | inactive
2 | C[C@@H]1CCCCO[C@H](CN(C)S(=O)(=O)c2ccccc2)[C@H](C)CN([C@@H](C)CO)C(=O)c2cc(NS(=O)(=O)c3ccc(Cl)cc3)ccc2O1 | inactive | inactive | inactive
3 | COc1ccc(S(=O)(=O)Nc2ccc3c(c2)C(=O)N([C@H](C)CO)C[C@@H](C)[C@@H](CN(C)Cc2ccc4c(c2)OCO4)OCCCC[C@@H](C)O3)cc1 | inactive | inactive | inactive
4 | C[C@H](CO)N1C[C@H](C)[C@@H](CN(C)Cc2ccc(-c3ccccc3)cc2)Oc2c(NS(=O)(=O)c3ccc(F)cc3)cccc2C1=O | inactive | active | inactive
5 | C[C@H](CO)N1C[C@H](C)[C@H](CN(C)Cc2ccc(Cl)c(Cl)c2)Oc2ccc(NC(=O)NC3CCCCC3)cc2C1=O | inactive | inactive | inactive
6 | NC1CCC(N2CCC3(CC2)CC(=O)N(Cc2cc(F)cc(F)c2)C3)CC1 (centres undefined) | inactive | inactive | inactive
7 | Cc1noc(C)c1NC(=O)Nc1ccc2c(c1)C(=O)N([C@@H](C)CO)C[C@@H](C)[C@H](CN(C)C(=O)c1ccccc1)OCCCC[C@H](C)O2 | inactive | inactive | inactive
8 | N#CCc1ccc(Cl)cc1F | inactive | inactive | inactive
9 | C[C@H]1CN([C@@H](C)CO)C(=O)c2cccc(NS(C)(=O)=O)c2O[C@@H]1CN(C)Cc1ccc(C(F)(F)F)cc1 | inactive | inactive | inactive
10 | NS(=O)(=O)Cc1noc2ccccc12 | inactive | inactive | inactive
11 | C[C@@H]1CN([C@H](C)CO)C(=O)Cc2cc(NC(=O)Nc3ccc(F)cc3)ccc2O[C@H]1CN(C)Cc1ccc(Oc2ccccc2)cc1 | active | active | inactive
12 | Cc1ccc(S(=O)(=O)Nc2ccc3c(c2)C(=O)N([C@H](C)CO)C[C@H](C)[C@H](CN(C)S(=O)(=O)c2cn(C)cn2)O3)cc1 | inactive | inactive | inactive
13 | C[C@H]1CN([C@@H](C)CO)C(=O)Cc2cc(NC(=O)CCN3CCOCC3)ccc2O[C@H]1CN(C)C(=O)Nc1ccc2c(c1)OCO2 | inactive | inactive | inactive
14 | C=CCCCCCCCCC=O | inactive | inactive | inactive
15 | COc1ccc(NC(=O)Nc2ccc3c(c2)CC(=O)N([C@H](C)CO)C[C@@H](C)[C@@H](CN(C)Cc2ccc(C(F)(F)F)cc2)O3)cc1 | active | active | inactive
16 | CC1(C)c2nc(-c3ccc(F)cc3)c(Nc3ccc(F)cc3)n2CCN1C(=O)CN | inactive | inactive | inactive
17 | CCCC#Cc1ccc2c(c1)O[C@H](CN(C)S(=O)(=O)c1cccc(OC)c1)[C@H](C)CN([C@@H](C)CO)S2(=O)=O | inactive | inactive | inactive
18 | C[C@H]1CN([C@@H](C)CO)C(=O)c2cccc(NC(=O)Nc3cccc4ccccc34)c2O[C@@H]1CN(C)S(=O)(=O)c1ccccc1 | inactive | inactive | inactive
19 | COc1ccc(S(=O)(=O)Nc2cccc3c2O[C@H](CN(C)Cc2ccc(-c4ccccc4)cc2)[C@H](C)CN([C@H](C)CO)C3=O)cc1 | inactive | inactive | inactive
20 | C[C@H]1CN([C@@H](C)CO)C(=O)CCCn2nncc2CO[C@@H]1CN(C)C(=O)C1CC1 | inactive | inactive | inactive
21 | Cc1noc(C)c1S(=O)(=O)Nc1ccc2c(c1)CC(=O)N([C@H](C)CO)C[C@@H](C)[C@H](CN(C)Cc1ccncc1)O2 | inactive | inactive | inactive
22 | C[C@H]1CCCCO[C@@H](CN(C)Cc2ccc(C(F)(F)F)cc2)[C@@H](C)CN([C@@H](C)CO)C(=O)c2cc(NC(=O)NC3CCCCC3)ccc2O1 | active | active | inactive
23 | COCC(=O)N1C[C@@H](C)[C@@H](OC)CN(C)C(=O)c2ccc(NC(=O)c3cc(C)on3)cc2OC[C@H]1C | inactive | inactive | inactive
24 | Cc1noc(C)c1NC(=O)Nc1ccc2c(c1)C(=O)N([C@H](C)CO)C[C@@H](C)[C@@H](CN(C)Cc1ccc(C(F)(F)F)cc1)OCCCC[C@H](C)O2 | inactive | inactive | inactive
25 | COC(=O)c1c(OC)cc2c(c1C)Oc1c(Cl)c(O)c(Cl)c(C)c1C(=O)O2 | inactive | inactive | inactive
26 | C[C@H]1CN([C@@H](C)CO)C(=O)Cc2cc(NS(C)(=O)=O)ccc2O[C@H]1CN(C)C(=O)NC1CCCCC1 | inactive | inactive | inactive
27 | C[C@@H]1CN([C@H](C)CO)C(=O)c2cc(NC(=O)Cc3cn(C)c4ccccc34)ccc2O[C@H]1CN(C)C(=O)Nc1ccc(C(F)(F)F)cc1 | inactive | active | inactive
28 | C[C@@H]1CCCCO[C@@H](CN(C)C(=O)c2ccccc2)[C@H](C)CN([C@H](C)CO)C(=O)c2cc(NC(=O)Nc3ccc(C(F)(F)F)cc3)ccc2O1 | inactive | inactive | inactive
